Results taken from paper PMC4336329 (PLoS ONE, 2015).
About 14,000 (4.5%) of roughly 310,000 compounds showed an effect of 50% or more. Effects have a minus sign here. This is one part of the list.

Target: human ether-à-go-go-related gene (hERG) potassium channel (human, UniProt Q12809)
Assay: primary screen, population patch clamp on CHO cells stably expressing hERG
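Note: peak tail current of the secondary pulse compared with the same well before compound.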

Sequence of human ether-à-go-go-related gene (hERG) potassium channel (Q12809 whole entry, looked up): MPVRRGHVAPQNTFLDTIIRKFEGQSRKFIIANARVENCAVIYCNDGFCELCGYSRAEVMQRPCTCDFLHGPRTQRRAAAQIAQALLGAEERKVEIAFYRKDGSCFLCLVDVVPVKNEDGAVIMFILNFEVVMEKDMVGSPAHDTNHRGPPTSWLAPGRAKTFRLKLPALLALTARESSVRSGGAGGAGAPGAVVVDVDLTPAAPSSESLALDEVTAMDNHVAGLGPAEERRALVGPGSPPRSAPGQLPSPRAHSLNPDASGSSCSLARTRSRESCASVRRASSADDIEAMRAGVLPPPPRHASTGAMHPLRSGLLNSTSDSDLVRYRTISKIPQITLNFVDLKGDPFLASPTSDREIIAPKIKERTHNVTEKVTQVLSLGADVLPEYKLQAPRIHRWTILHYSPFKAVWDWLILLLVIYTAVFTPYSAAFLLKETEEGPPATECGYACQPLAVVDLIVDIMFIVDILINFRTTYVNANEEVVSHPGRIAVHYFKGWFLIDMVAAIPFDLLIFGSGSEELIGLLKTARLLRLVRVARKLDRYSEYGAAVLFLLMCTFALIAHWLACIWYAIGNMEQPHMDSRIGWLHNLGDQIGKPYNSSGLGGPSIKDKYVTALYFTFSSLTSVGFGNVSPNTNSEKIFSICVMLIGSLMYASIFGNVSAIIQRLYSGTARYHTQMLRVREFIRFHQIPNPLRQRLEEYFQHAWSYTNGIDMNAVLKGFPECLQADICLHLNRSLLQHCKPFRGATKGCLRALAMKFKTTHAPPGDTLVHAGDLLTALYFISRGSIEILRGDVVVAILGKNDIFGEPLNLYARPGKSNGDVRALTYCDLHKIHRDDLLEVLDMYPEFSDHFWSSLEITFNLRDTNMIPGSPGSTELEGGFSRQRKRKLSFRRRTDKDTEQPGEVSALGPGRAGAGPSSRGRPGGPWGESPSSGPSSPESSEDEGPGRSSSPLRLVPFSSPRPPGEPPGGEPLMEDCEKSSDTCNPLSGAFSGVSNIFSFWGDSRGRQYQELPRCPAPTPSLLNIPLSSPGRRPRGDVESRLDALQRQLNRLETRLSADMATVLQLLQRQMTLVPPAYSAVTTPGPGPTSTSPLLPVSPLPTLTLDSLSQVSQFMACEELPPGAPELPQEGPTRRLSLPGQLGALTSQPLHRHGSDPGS

| SMILES | hERG current change (%, negative = inhibition) at 10uM [%] |
| --- | --- |
| CC(C)CNC(CC(=O)Nc1cccc([N+](=O)[O-])c1)C(=O)O (centres unmarked) | -1.01 |
| Cc1ccc2nc3c(c(N)c2c1)CCN3c1ccccc1.O=C(O)C(=O)O | -35.4 |
| CCCc1ccc2oc(C(=O)N3CCCC3)c(C)c2c1 | -7.11 |
| CCOc1ccccc1N1CCN(Cc2cn[nH]c2-c2ccc(F)cc2)CC1 | -72.3 |
| COc1ccc2cc(/C=C3\SC(=S)NC3=O)c(N3CCOCC3)nc2c1 | 17.5 |
| Cc1ccc(C)c(S(=O)(=O)NCc2ccc(C(=O)N3CCC(Cc4ccccc4)CC3)cc2)c1 | 5.28 |
| COc1ccc(C(CNC(=O)CNC(=O)c2cccc(C)c2)N2CCOCC2)cc1 (centres unmarked) | 9.11 |
| O=C(Nc1ccc(F)cc1Cl)c1ccc2c(=O)n3c(nc2c1)CCCCC3 | -4.13 |
| CCCCN1C(=O)C(C)=C(C)C1OCCc1ccc(OC)c(OC)c1 (centres unmarked) | 18.2 |
| Cc1ccccc1C(=O)NN(C)c1nc2ccccc2nc1C(F)(F)F | 17.3 |
| Cn1nc(C(F)(F)F)c2cc(C(=O)Nc3ccc(F)cc3F)sc21 | -0.969 |
| O=C(COC(=O)[C@H](Cc1ccccc1)NC(=O)c1ccco1)NC(c1ccccc1)c1ccccc1 | -6.39 |
| COc1ccc(/C=c2/sc3nc(-c4ccccc4)c(-c4ccccc4)n3c2=O)cc1 | -13.9 |
| O=C(N/N=C/c1ccco1)c1cc(-c2cccs2)[nH]n1 | 1.93 |
| COc1cc2c(cc1OC)[C@H](C)N(C(=O)NCc1ccccc1)CC2 | 5.78 |
| CCN1C(=O)CCC(C(=O)O)C1c1ccc(OC)cc1 (centres unmarked) | 13.1 |
| O=C(NCC(c1cccs1)N1CCOCC1)c1cc([N+](=O)[O-])cc([N+](=O)[O-])c1 (centres unmarked) | 5.88 |
| CCOC(=O)c1[nH]c(C)c(/C(O)=C2\C(=O)C(=O)N(CCN(C)C)C2c2ccc(C)o2)c1C (centres unmarked) | 14.6 |
| COc1ccc(C(=O)Nc2nc(CC(=O)NCCc3cccc(OC)c3)cs2)cc1 | -20.7 |
| Clc1cccc(Cl)c1-c1nnc2ccc(N3CCOCC3)nn12 | 1.97 |
| O=C(O)c1cc(-c2cccs2)nn1-c1cccc(Cl)c1 | 17.8 |
| O=C(COc1ccccc1)NC(Cc1c[nH]c2ccccc12)C(=O)O (centres unmarked) | -17.8 |
| COCCCn1c(CCC(=O)O)ccc1-c1cccs1 | -4.51 |
